60 sequences from the supplement of paper PMC10338343 can be followed below.

The experiment relates to MIWI (PIWIL1) piRISC loaded with L1MC piRNA (30 nt). Put plainly: pre-steady-state target cleavage rate (min^-1); MIWI and MILI are mouse PIWI proteins and EfPiwi is from a freshwater sponge; tags in brackets are library labels; higher = faster piRNA-guided slicing of the target. As to conditions: guide: L1MC piRNA 5'p-UAACUAAAUACUAUGCAAGCUGUAGGUCCU
A digest of the protocol: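 In Cleave-'n-Seq, a transcribed, DNA-blocked target RNA library (0.1 nM) was combined with 1 nM active affinity-purified piRISC bearing one synthetic guide, with or without 500 nM GTSF1 partner protein. Reactions ran in HEPES–potassium acetate buffer at 33 °C for 0–8 or 0–960 min. Uncleaved targets were sequenced and normalised to depth and to weakly complementary targets, three trials were pooled, and k3 was capped at 0.0001 min^-1. The pre-steady-state cleavage rate was obtained by fitting a burst-and-steady-state model.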

Setting [1] is: auxiliary factor: 500 nM mouse GTSF1.
Setting [2] is: auxiliary factor: none (no GTSF1).

± gives the standard deviation. The list shows a part of the results, in another mix than the full data.

As for UGGACCUUCAGGUUGCAUAGUAUUUAGUUA, the “pre-steady-state target cleavage rate” value turned out to be 1.14 ± 0.099 under setting [1] and 0.0476 ± 0.01 under setting [2].

As to UCCUGCUACAGCUUGCAUAGUAGUUAGUUA, the “pre-steady-state target cleavage rate” value came to 0.235 ± 0.029 under setting [1] and 0.0119 ± 0.0026 under setting [2].

UCCUGGAUGUGCAUGCAAAGUAUUUAGUUA: the “pre-steady-state target cleavage rate” value by setting is: under setting [1], 0.0129 ± 0.0031; under setting [2], 0.00516 ± 0.0023.

Take UCCUGGAACAGCUUGCAUAGUAUAAUGUUA: the “pre-steady-state target cleavage rate” value under setting [1] stood at 0.196 ± 0.029 and the “pre-steady-state target cleavage rate” value under setting [2] turned out to be 0.0128 ± 0.0033.

UCCACCUACACCUUGCAAAGUAUUUAGUUA: the “pre-steady-state target cleavage rate” value runs as follows: under setting [1], 0.933 ± 0.036; under setting [2], 0.0329 ± 0.006.

As for UCCUCCUAGAGCUUGCAUAGUAUUAAGUUA, the “pre-steady-state target cleavage rate” value is, setting by setting: under setting [1], 0.732 ± 0.078; under setting [2], 0.0122 ± 0.0021.

For the sequence UCCACCUACAGCAUGCAUAGUAUUUAGUAA, the “pre-steady-state target cleavage rate” value reads like this: under setting [1], 0.602 ± 0.051; under setting [2], 0.0121 ± 0.0037.

Turning to UCCUGGAUGAGCUUGCAUAGUAUUUUGUUA, the “pre-steady-state target cleavage rate” value under setting [1] was 0.572 ± 0.047 and the “pre-steady-state target cleavage rate” value under setting [2] was found to be 0.0326 ± 0.0068.

For the sequence UCCUGCUACAGCUUGCAUAGUAUUUAGCUUA, the “pre-steady-state target cleavage rate” value reads like this: under setting [1], 0.193 ± 0.029; under setting [2], 0.0114 ± 0.0037.

Consider UCCACCUACAGCAUGCAUAGUAUUUUGUUA, for which the “pre-steady-state target cleavage rate” value under setting [1] worked out at 0.562 ± 0.056 and the “pre-steady-state target cleavage rate” value under setting [2] stood at 0.0113 ± 0.0018.

For UCGACCUACAGCUUGCAUAGUAAUUAGAUA, the “pre-steady-state target cleavage rate” value stood at 0.336 ± 0.038 under setting [1] and 0.00853 ± 0.0029 under setting [2].

Regarding UCCUCCUACAGCUUGCAUUGUAUUUAGUAA, the “pre-steady-state target cleavage rate” value runs as follows: under setting [1], 0.48 ± 0.022; under setting [2], 0.0133 ± 0.003.

UCGACGUACAGCUUGCAUAGUAUUUACAAA: the “pre-steady-state target cleavage rate” value runs as follows: under setting [1], 0.32 ± 0.045; under setting [2], 0.00459 ± 0.0019.

As to UCCUCCUACAGGUUGCAUAGUAUUUACUUA, the “pre-steady-state target cleavage rate” value by setting is: under setting [1], 0.186 ± 0.027; under setting [2], 0.0141 ± 0.0024.

UCGACCUUCAGGUUGCAUAGUAUUUAGUUA: the “pre-steady-state target cleavage rate” value is, setting by setting: under setting [1], 1.04 ± 0.043; under setting [2], 0.0361 ± 0.0069.

In the case of UCGACCUACUCCUUGCAUAGUAUUUACAAA, the “pre-steady-state target cleavage rate” value is, setting by setting: under setting [1], 0.198 ± 0.026; under setting [2], 0.00399 ± 0.0016.

On to UCCUGGAACAGCAUGCAUAGUAUAUAGUUA, for which the “pre-steady-state target cleavage rate” value turned out to be 0.756 ± 0.062 under setting [1] and 0.0122 ± 0.0047 under setting [2].

Regarding UCCUGGAUCGAGCUUGCAUAGUAUUUAGUUA, the “pre-steady-state target cleavage rate” value turned out to be 0.817 ± 0.043 under setting [1] and 0.0319 ± 0.0068 under setting [2].

In the case of AGGACCUACACCUUCCAUAGUAUUUAGUUA, the “pre-steady-state target cleavage rate” value reads like this: under setting [1], 0.0641 ± 0.017; under setting [2], 0.00484 ± 0.002.

Take UCCUGGUACAGCUUCGAUAGUAUUUAGUUA: the “pre-steady-state target cleavage rate” value runs as follows: under setting [1], 0.302 ± 0.029; under setting [2], 0.00319 ± 0.0029.

For UCGACCUACAGCUUGCAUAGUAUUUUCAUA, the “pre-steady-state target cleavage rate” value by setting is: under setting [1], 0.35 ± 0.043; under setting [2], 0.00571 ± 0.0037.

For UCCUCCUACAGCUUGCAUAGUAUUUAGAAA, the “pre-steady-state target cleavage rate” value under setting [1] was found to be 0.412 ± 0.048 and the “pre-steady-state target cleavage rate” value under setting [2] worked out at 0.00541 ± 0.0029.

For the sequence UCCUGGAUCAGCUUGCAUAGAAUUUUGUUA, the “pre-steady-state target cleavage rate” value reads like this: under setting [1], 0.235 ± 0.039; under setting [2], 0.0144 ± 0.0063.

Regarding UCCUGGAUCAGCUUGCAUAGUAAUUUAGUUA, the “pre-steady-state target cleavage rate” value is, setting by setting: under setting [1], 0.0743 ± 0.011; under setting [2], 0.00721 ± 0.0016.

With UCCUGGUACAGCUUGCAAGUAUUUAGUUA, the “pre-steady-state target cleavage rate” value under setting [1] was 0.181 ± 0.021 and the “pre-steady-state target cleavage rate” value under setting [2] turned out to be 0.0108 ± 0.0039.

For UCCUGGAACAGCUUGGAUAGUAUUUAGAAA, the “pre-steady-state target cleavage rate” value reads like this: under setting [1], 0.144 ± 0.027; under setting [2], 0.00668 ± 0.0027.

Turning to UCCUGGUACAGCUAUGCAUAGUAUUUAGUUA, the “pre-steady-state target cleavage rate” value runs as follows: under setting [1], 0.795 ± 0.037; under setting [2], 0.0185 ± 0.0039.

On to AGGACCUACAGCUUGCAUAGUUUUUACAAA, for which the “pre-steady-state target cleavage rate” value came to 0.243 ± 0.042 under setting [1] and 0.00327 ± 0.003 under setting [2].

As to UGGAGCUACAGCUUGCAUAGUAUUAAGUUA, the “pre-steady-state target cleavage rate” value under setting [1] came out at 0.802 ± 0.051 and the “pre-steady-state target cleavage rate” value under setting [2] is 0.0384 ± 0.0088.

With UCGACCUAGAGCUUGCAUAGUAUUUUGUUA, the “pre-steady-state target cleavage rate” value was found to be 0.884 ± 0.085 under setting [1] and 0.0292 ± 0.0057 under setting [2].

As for UCCUCCUAGAGCUUGCAUAGUUUUUAGUUA, the “pre-steady-state target cleavage rate” value was determined as 0.301 ± 0.028 under setting [1] and 0.0163 ± 0.0035 under setting [2].

Consider AGGAGCUAGAGCUUGCAUAGUAUUUAGUUA, for which the “pre-steady-state target cleavage rate” value under setting [1] is 0.922 ± 0.049 and the “pre-steady-state target cleavage rate” value under setting [2] stood at 0.0536 ± 0.0099.

Take UGGAGGUACAGCUUGCAUAGUAUUUAGUUA: the “pre-steady-state target cleavage rate” value runs as follows: under setting [1], 1.35 ± 0.064; under setting [2], 0.0828 ± 0.015.

For UCCUGCUUCAGCUUGCAUAGUAUUUACAAA, the “pre-steady-state target cleavage rate” value amounted to 0.435 ± 0.066 under setting [1] and 0.00357 ± 0.0025 under setting [2].

Consider UCCUGGAUCAGCUUGCAUAGUAUUAUCUUA, for which the “pre-steady-state target cleavage rate” value was 0.0996 ± 0.019 under setting [1] and 0.00511 ± 0.0021 under setting [2].

In the case of UCCUCCAUCAGCUUGCAUAGUAUUUAGUAA, the “pre-steady-state target cleavage rate” value is 0.372 ± 0.028 under setting [1] and 0.0277 ± 0.0058 under setting [2].

Consider UCCUGGAUGAGCUAGCAUAGUAUAUAGUUA, for which the “pre-steady-state target cleavage rate” value is 0.194 ± 0.031 under setting [1] and 0.00454 ± 0.0041 under setting [2].

For the sequence UCGACCUACAGCUUGCCUAGUAUUUAGUUA, the “pre-steady-state target cleavage rate” value under setting [1] worked out at 1.14 ± 0.046 and the “pre-steady-state target cleavage rate” value under setting [2] was determined as 0.0457 ± 0.0085.

Consider UCCUGGAACACCUUGCAUAGUAAUUAGUUA, for which the “pre-steady-state target cleavage rate” value reads like this: under setting [1], 0.309 ± 0.043; under setting [2], 0.0109 ± 0.0031.

As to UCCUGGUACAGCGUGCAUAGUAUUUAGUUA, the “pre-steady-state target cleavage rate” value by setting is: under setting [1], 0.515 ± 0.064; under setting [2], 0.0243 ± 0.0045.

Turning to UCGACCUACUCGUUGCAUAGUAUUUAGUAA, the “pre-steady-state target cleavage rate” value runs as follows: under setting [1], 0.522 ± 0.032; under setting [2], 0.00974 ± 0.0021.

In the case of UCCUCCUACUGGUUGCAUAGUAUUUAGUUA, the “pre-steady-state target cleavage rate” value was 0.952 ± 0.031 under setting [1] and 0.0303 ± 0.0054 under setting [2].

As to “UCGACCUACAGCUUGCAUAGUAUUUAGUUU [g2:g28:cont:t1U]”, the “pre-steady-state target cleavage rate” value is 1.75 ± 0.067 under setting [1] and 0.158 ± 0.033 under setting [2].

For the sequence UCCUGGAACAGCUUGCAUACUUUUUAGUUA, the “pre-steady-state target cleavage rate” value runs as follows: under setting [1], 0.0169 ± 0.0068; under setting [2], 0.00432 ± 0.0025.

Regarding UGGACCUACAGCUUGCUUAGUUUUUAGUUA, the “pre-steady-state target cleavage rate” value under setting [1] was determined as 0.21 ± 0.021 and the “pre-steady-state target cleavage rate” value under setting [2] was found to be 0.0135 ± 0.0031.

Consider UCCUCCUACAGCUUGCAAAGUAUUUACUUA, for which the “pre-steady-state target cleavage rate” value is, setting by setting: under setting [1], 0.313 ± 0.025; under setting [2], 0.0191 ± 0.0036.

For “UCCUGGAUGUCGAACCAUAGUAUUAUCAAA [g7:g15:cont:t1A]”, the “pre-steady-state target cleavage rate” value reads like this: under setting [1], below 0.0001; under setting [2], below 0.0001.

Turning to UCCUGGAUGAGCUUGCAUAGUGUUUAGUUA, the “pre-steady-state target cleavage rate” value under setting [1] is 0.708 ± 0.06 and the “pre-steady-state target cleavage rate” value under setting [2] is 0.0494 ± 0.01.

For the sequence UCCACCUACAGCUUGGAUAGUAUAUAGUUA, the “pre-steady-state target cleavage rate” value reads like this: under setting [1], 0.547 ± 0.043; under setting [2], 0.0205 ± 0.0039.

Consider UCCUGGUAGAGCUUGCAUAGUAUUUAGUUA, for which the “pre-steady-state target cleavage rate” value stood at 0.758 ± 0.057 under setting [1] and 0.04 ± 0.0087 under setting [2].

In the case of UCCUCCUACAACUUGCAUAGUAUUUAGUUA, the “pre-steady-state target cleavage rate” value stood at 1.05 ± 0.034 under setting [1] and 0.0589 ± 0.011 under setting [2].

Regarding UCCUGCUACAGCUUAGCAUAGUAUUUAGUUA, the “pre-steady-state target cleavage rate” value reads like this: under setting [1], 1.25 ± 0.1; under setting [2], 0.00739 ± 0.0022.

As for UCCUCCUACUCCUUGCAUAGUAUUUAGAAA, the “pre-steady-state target cleavage rate” value runs as follows: under setting [1], 0.265 ± 0.043; under setting [2], 0.00404 ± 0.0016.

Turning to AGGACCUACAGCUUGCAUAAUAUUUAGUUA, the “pre-steady-state target cleavage rate” value reads like this: under setting [1], 0.672 ± 0.037; under setting [2], 0.0527 ± 0.0074.

As for UGGACCUACAGCUAUGCAUAGUAUUUAGUUA, the “pre-steady-state target cleavage rate” value runs as follows: under setting [1], 1.24 ± 0.11; under setting [2], 0.0371 ± 0.0083.

Regarding UCGACCAACAGCUUGCAUACUAUUUAGUUA, the “pre-steady-state target cleavage rate” value was determined as 0.443 ± 0.02 under setting [1] and 0.0393 ± 0.0093 under setting [2].

As to UCCUGGAACACCUUGCAUUGUAUUUAGUUA, the “pre-steady-state target cleavage rate” value under setting [1] came to 0.235 ± 0.024 and the “pre-steady-state target cleavage rate” value under setting [2] turned out to be 0.00889 ± 0.0019.

Turning to “UCCUGGAUGUCCUUGCAUAGUAUUUAGUUA [g2:g19:cont:t1A]”, the “pre-steady-state target cleavage rate” value under setting [1] is 0.179 ± 0.021 and the “pre-steady-state target cleavage rate” value under setting [2] is 0.0112 ± 0.0025.

UCCUGGAUGUGCUAGCAAAGUAUUUAGUUA: the “pre-steady-state target cleavage rate” value reads like this: under setting [1], 0.0143 ± 0.0039; under setting [2], 0.00386 ± 0.0025.

As to AGGACCUACAGCUUGCAUAGUAUUGAGUUA, the “pre-steady-state target cleavage rate” value reads like this: under setting [1], 0.699 ± 0.068; under setting [2], 0.085 ± 0.017.
